± gives the standard deviation of the averaged measurements. Some of the results follow.
The sequences below were run on PfAP2-G AP2 domain (GST-tagged) (assay: gcPBM binding intensity (ln(normalized median fluorescence intensity)); higher = stronger DNA binding).
In short: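 Binding intensity is defined as the maximum Masliner-normalised natural-log median intensity across replicate spots for either probe orientation. It was measured on an Agilent 4 × 180k array of primer-extended double-stranded 36-bp intergenic genomic probes and negative controls, to which GST-tagged P. falciparum DNA-binding domains made in E. coli were applied for 1 h in 1× PBS with 1% milk, 0.2 mg/ml BSA, 0.5% salmon testes DNA and 0.03% Triton X-100. Detection was by Alexa488 anti-GST antibody and scanning at 488 nm.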
With “AGCAAAAATTAAATAAATAAATATATATATATATAT [TGCATGCA_negctrl_site449]” the “gcPBM binding intensity (ln)” value was 9.85 ± 0.14.
With “AATAATATATATATATATATATATAGATATGTATAT [GTGCAC_negctrl_site653]” the “gcPBM binding intensity (ln)” value was 9.54 ± 0.042.
“TTTTTTTTTTTTTTTACACACATTTTAATAATTTTA [CACACA_site1492]” was tested, and the “gcPBM binding intensity (ln)” value was 9.71 ± 0.45.
With “TTGTAAAAAATTCATACACACGTCTTATTTTTAAGA [CACACA_site8390]” the “gcPBM binding intensity (ln)” value was 9.895 ± 0.007.
For “ATTTTTTCTAAAAGTTGTACATTAAAACGTGTTCAC [XGTACX_site4803]”, the “gcPBM binding intensity (ln)” value was 11.5 ± 0.91.
In the case of “AGTTTTATATTTCTGAGTACTTATGAATCTAGCTCG [XGTACX_site4330]”, the “gcPBM binding intensity (ln)” value is reported as 11.2 ± 0.72.
For “AAGACTCTTTGTCCTTGTACATATATTTTTATGTTT [XGTACX_site3711]”, the “gcPBM binding intensity (ln)” value was 11.1 ± 0.69.
For “TTTATATAATATGAATGTACTTATATATTTATAGAC [XGTACX_site3261]”, the “gcPBM binding intensity (ln)” value was 11.2 ± 0.88.
For “AAAATGAATTTAAAATGTACTTTTTCTAAAGAGTAA [XGTACX_site2337]”, the “gcPBM binding intensity (ln)” value was 11.3 ± 0.88.
“TTATAGGTGCTTCGTAGTACATAAAAATAATATATA [XGTACX_site6979]” was tested, and the “gcPBM binding intensity (ln)” value was 11.1 ± 0.79.
For “TATTTATTCTCCAACACACACACATATATATATATA [CACACA_site2894]”, the “gcPBM binding intensity (ln)” value was 10.2 ± 0.2.
TATAAGTGCTCAACGGTGCATTTATAGAAGTTAAAC was tested, and the “gcPBM binding intensity (ln)” value was 10 ± 0.16.
“TATAAAATAAAAAATATATATATGTATATATATATA [TGCATGCA_negctrl_site163]” was tested, and the “gcPBM binding intensity (ln)” value was 9.74 ± 0.73.
In the case of “ATTATTTTATATACATGTACATATTATATATAAAAG [XGTACX_site2735]”, the “gcPBM binding intensity (ln)” value is reported as 11.2 ± 0.74.
In the case of TATAATTTTTACTGGGTGCACTCGATATTTTAAATA, the “gcPBM binding intensity (ln)” value is reported as 10.7 ± 0.62.
For “TAAATGTAAAACGAAATGCACACTATGGAAAATATA [CACACA_site724]”, the “gcPBM binding intensity (ln)” value was 10.19 ± 0.028.
With “CACACTTTTTAAATTAACGCATTTCAAAAAAAATAT [CACACA_negctrl_site84]” the “gcPBM binding intensity (ln)” value was 10.09 ± 0.092.
In the case of “TATTTATACACGCACACACACTTATACATTTATATA [CACACA_site7543]”, the “gcPBM binding intensity (ln)” value is reported as 10.6 ± 0.18.
With “TTTCTTTTTTAGAGGTGTACACGTAGGCCTCTTGGA [XGTACX_site4760]” the “gcPBM binding intensity (ln)” value was 11.6 ± 1.
For “TTAGATATTAATATATGTACATATTAATATATTTAC [XGTACX_site7119]”, the “gcPBM binding intensity (ln)” value was 11.1 ± 0.65.
“TTGATAGACACATGCACACATGCAATACTTTATTCA [CACACA_site3000]” was tested, and the “gcPBM binding intensity (ln)” value was 10.2 ± 0.18.
For “TAGGTGTTAAAAAATACACACACAAAAAAAAAAAAA [CACACA_site7927]”, the “gcPBM binding intensity (ln)” value was 9.93 ± 0.45.
With “GGAATATTATTTCAATGTACATTTTGAGATTAGAAT [XGTACX_site8187]” the “gcPBM binding intensity (ln)” value was 10.8 ± 0.5.
In the case of “ATTATTATTTTACGTAGTACATATAATAAATATTTA [XGTACX_site8934]”, the “gcPBM binding intensity (ln)” value is reported as 11.1 ± 0.85.
With “TTATTTCTAATTCGTTGTACAATATATAATATATAT [XGTACX_site5861]” the “gcPBM binding intensity (ln)” value was 11.3 ± 0.81.
For “TATCCATATTTGTTCACACACACACGGATTTATATA [CACACA_site7649]”, the “gcPBM binding intensity (ln)” value was 10.2 ± 0.18.
In the case of ACATTTTTGGTTTTAGTGCAATATGAATTATTTTAT, the “gcPBM binding intensity (ln)” value is reported as 10.12 ± 0.078.
In the case of “TCTTCCATTTTTATTACACACATAAATATGAAATCG [CACACA_site3471]”, the “gcPBM binding intensity (ln)” value is reported as 10.1 ± 0.23.
“CCTTTAAGCAAAAACACACACACATATATATATATA [CACACA_site348]” was tested, and the “gcPBM binding intensity (ln)” value was 10 ± 0.24.
With “AAAGGTAAATGTAAATAAATAAATAATAAATATATA [GTGCAC_negctrl_site681]” the “gcPBM binding intensity (ln)” value was 9.705 ± 0.007.
With “AACAGAATAATACTAAATGAACGATTTCTCTTTATG [GTGCAC_negctrl_site376]” the “gcPBM binding intensity (ln)” value was 9.65 ± 0.21.
In the case of “TGCAGTCTGGAGAAGAGTACACAGTATCTGGTAACA [XGTACX_site2037]”, the “gcPBM binding intensity (ln)” value is reported as 11.4 ± 1.1.
“TATATATTCATATGTTGTACATAAATACAAATAAGA [XGTACX_site5602]” was tested, and the “gcPBM binding intensity (ln)” value was 11.1 ± 0.89.
For “AAAAAAAAAAAGAAATGTACATGAATATTTTAAATG [XGTACX_site4069]”, the “gcPBM binding intensity (ln)” value was 11 ± 0.45.
With “ATTAATATGAATAAAACACACATATATAATTTGTAA [CACACA_site1929]” the “gcPBM binding intensity (ln)” value was 9.855 ± 0.021.
“TAACTTTTATCCTTAATTCATATATAAGATTAAATC [CACACA_negctrl_site669]” was tested, and the “gcPBM binding intensity (ln)” value was 9.9 ± 0.15.
In the case of “ATTTTTTTTTTTTTTTTTTATATGCTCTCCATGAGA [CACACA_negctrl_site1225]”, the “gcPBM binding intensity (ln)” value is reported as 9.7 ± 0.2.
For “AGGCAATATTATATATATATATATATATATATATAT [CACACA_negctrl_site826]”, the “gcPBM binding intensity (ln)” value was 9.91 ± 0.64.
In the case of “CATGCTACATCTTATTGTACTTATCTAATGTTAGTA [XGTACX_site1863]”, the “gcPBM binding intensity (ln)” value is reported as 11.2 ± 0.73.
With “AAAAAGGAGAAACACACACACACACCCATATATATA [CACACA_site905]” the “gcPBM binding intensity (ln)” value was 10 ± 0.12.
In the case of “TTGTAAATTTACATTTGTACATAAATATATTAATAT [XGTACX_site3969]”, the “gcPBM binding intensity (ln)” value is reported as 10.9 ± 0.47.
For “TGTATGTTTGGGTGCACACATAAATATTATATATAG [CACACA_site3397]”, the “gcPBM binding intensity (ln)” value was 10.8 ± 0.71.
“ATATATATAAAACACACACACACATGGTTTAAAACT [CACACA_site4219]” was tested, and the “gcPBM binding intensity (ln)” value was 10.12 ± 0.071.
With “TCTTTTTACACCTCTTACATAAAACAAAATAAGGGG [XGTACX_negctrl_site12]” the “gcPBM binding intensity (ln)” value was 10.7 ± 0.38.
For “TATACATGTTATGTACATCTAATCACACGTGCAATA [CACACA_negctrl_site1267]”, the “gcPBM binding intensity (ln)” value was 11.3 ± 0.79.
